Experimental findings from the supplement of paper PMC9446081 are described below.

In all, about 39,000 compounds went through this assay and about 220 (0.56%) showed activity. This is one part of the list.
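Note: static incubation at 37 °C against the wild-type strain, values averaged over two biological replicates.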

For the test, the system named is Escherichia coli K-12 BW25113. The test is described as follows: relative growth (OD600 normalised to plate interquartile mean) (fraction); higher = less growth inhibition, active = 0.2 or less. The note with it: 50 µM; LB; incubation time: overnight (16-24 h).
`COc1ccccc1S(=O)(=O)N[C@H]1C=C[C@H](CC(=O)N2CCOCC2)O[C@@H]1CO`: the relative growth was inactive: 0.979. With `C[C@@H]1CN([C@@H](C)CO)C(=O)c2cccc(NC(=O)Nc3ccc(C(F)(F)F)cc3)c2O[C@@H]1CN(C)Cc1ccncc1` the figure was inactive: 0.937. Consider `C[C@@H]1CCCCO[C@H](CN(C)S(=O)(=O)c2ccc(Cl)cc2)[C@@H](C)CN([C@@H](C)CO)C(=O)c2cc(NS(=O)(=O)c3ccccc3)ccc2O1`, for which the relative growth is inactive: 1.02. Turning to `Cc1ccc(S(=O)(=O)Nc2cccc3c2O[C@@H](CN(C)Cc2ccc(Cl)c(Cl)c2)[C@H](C)CN([C@H](C)CO)C3=O)cc1`, the relative growth was inactive: 1.03. Consider `CC/C(=C\C(=O)O)c1ccccc1`, for which the relative growth was inactive: 0.987.

With `Cc1ncc([N+](=O)[O-])n1C[C@@H](CN1CCOCC1)OP(=O)(O)O`, the relative growth was inactive: 1.01.

Take `CC(C)(C)NCC(O)c1cc(O)cc(O)c1.O=S(=O)(O)O` (configuration not stated): the relative growth was inactive: 0.965. With `Cc1cc(C)nc(NS(=O)(=O)c2ccc(NC(=O)c3cccn(OCc4ccc(F)cc4)c3=O)cc2)n1` the figure was inactive: 1.04; with `Cc1ccc(S(=O)(=O)N(C)C[C@@H]2OCCCC[C@@H](C)Oc3ccc(NC(=O)Nc4ccc(F)cc4)cc3C(=O)N([C@H](C)CO)C[C@H]2C)cc1`, inactive: 1.03. Turning to `C[C@@H]1CN([C@H](C)CO)C(=O)c2cc(NS(=O)(=O)c3cccs3)ccc2O[C@@H](C)CCCCO[C@@H]1CN(C)Cc1ccc2c(c1)OCO2`, the relative growth is inactive: 0.999. `CC(C)CC#Cc1ccc2c(c1)O[C@H](CN(C)C(=O)Cc1cccnc1)[C@H](C)CN([C@@H](C)CO)S2(=O)=O`: the relative growth was inactive: 0.999. Consider `C[C@H](CO)N1C[C@H](C)[C@@H](CN(C)C(=O)c2cnccn2)Oc2cc(C#CCC3CCCC3)ccc2S1(=O)=O`, for which the relative growth is inactive: 1.03. Turning to `COc1ccc(CNC(=O)c2cc3c(c(-c4cccc(-c5cccc(C#N)c5)c4)n2)[C@H](CCO)N([S@@](=O)C(C)(C)C)C3)cc1`, the relative growth was inactive: 0.984.

Turning to `C[C@H](CO)N1C[C@H](C)[C@H](CN(C)Cc2ccc(-c3ccccc3)cc2)Oc2c(NC(=O)Nc3ccc(F)cc3)cccc2C1=O`, the relative growth was inactive: 1.02.

For the compound `COC(=O)[C@@H]1[C@@H](CO)[C@@H]2Cn3c(ccc(-c4ccccc4)c3=O)[C@@H]2N1S(C)(=O)=O`, the relative growth is inactive: 0.982. Next, `Cc1ccc(S(=O)(=O)Nc2ccc3c(c2)C(=O)N([C@@H](C)CO)C[C@@H](C)[C@H](CN(C)S(=O)(=O)c2ccc(F)cc2)OCCCC[C@H](C)O3)cc1`: inactive: 1.05; `C[C@H](CO)N1C[C@H](C)[C@H](CN(C)Cc2ccc(C(=O)O)cc2)Oc2ccc(NC(=O)c3ccncc3)cc2CC1=O`: inactive: 0.985.
